The text below walks through data of the RNAGym collection of RNA variant scans (doi:10.1073/pnas.2313332121).

Sequences and labels used below:
B1: TPR 5TU (parent)
chain: GGAUCUUCUCGAUCUAACAAAAAAGACAAAUCUGCCACAAAGCUUGAGAGCAUCUUCGGAUGCAGAGGCGGCAGCCUUCGGUGGCGCGAUAGCGCCAACGUUCUCAACUAUGACACGCAAAACGCGUGCUCCGUUGAAUGGAGUUUAUCAUG

This sample is rich in variants without activity.

In the data set the parent is B1. The data set is described as follows: polymerase ribozyme fitness, log enrichment relative to wild type (log ratio); higher = more active; in vitro selection for triplet polymerase activity. The method, boiled down:
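The heterodimeric triplet polymerase ribozyme's subunits were each mutagenized into PCR-built libraries and transcribed. Every library was selected once, in triplicate, by annealing with a biotinylated primer, the partner subunit and triplets, incubating frozen at −7 °C, gel-excising extended constructs, capturing on streptavidin beads and running RT-PCR. Input and output libraries were Illumina-sequenced, with genotypes kept only at ≥10 input reads and ≥1 read per output. Fitness, from inverse-variance-weighted replicate averages, is the base-2 logarithm of genotype enrichment over wild-type enrichment.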
In the case of A26U C35G G80A U102G C118A G133C, the “polymerase ribozyme fitness (log ratio)” value is not above -4.2. Consider C27G A30U A49C U55A C57G C63U, for which the “polymerase ribozyme fitness (log ratio)” value was not above -4.2. With A26U G48C C93A U104A, the “polymerase ribozyme fitness (log ratio)” value is not above -4.2. The value for C27U G59A G67C G86C C99U was not above -4.2.

With C27A A29G A66C A73U A113U, the “polymerase ribozyme fitness (log ratio)” value was not above -4.2. The value for C27U A37C A60G G86A U104C C118A C132U U144C C149G was not above -4.2. The value for A26U G46U was -3.87; that for C27A C32A G88U C95U U144G was not above -4.2; that for C27G C85U A115C G143C was not above -4.2. With C27A C38G U82A G92U C114G, the “polymerase ribozyme fitness (log ratio)” value is not above -4.2. With C27U A28U C36A C96G U135G, the “polymerase ribozyme fitness (log ratio)” value is not above -4.2.

With C27U C85U A107G G124C, the “polymerase ribozyme fitness (log ratio)” value was not above -4.2. In the case of A26U A37U G59C A98G G117U, the “polymerase ribozyme fitness (log ratio)” value is not above -4.2. As for C27G A39G C51G A89G G128C, the “polymerase ribozyme fitness (log ratio)” value was not above -4.2. As for C27A G50C G80A C95U, the “polymerase ribozyme fitness (log ratio)” value is not above -4.2. As to A28C U82G C85U G117U, the “polymerase ribozyme fitness (log ratio)” value is not above -4.2.

A28U A30C C32A A47C G58C C85U A107U: the “polymerase ribozyme fitness (log ratio)” value is not above -4.2. For the variant A28C C87G G117C A137U, the “polymerase ribozyme fitness (log ratio)” value was not above -4.2. In the case of A26G U55A C93U C116G G124A, the “polymerase ribozyme fitness (log ratio)” value is not above -4.2.

As for C27G A49G U55A C57G C93A G112A G141U A147C, the “polymerase ribozyme fitness (log ratio)” value is not above -4.2.

Consider A26U A47C C103A G141U, for which the “polymerase ribozyme fitness (log ratio)” value was not above -4.2. The value for C27U C63G C95U C96U C99G was -3.33; that for A26G C85U A106C G143C was not above -4.2.

Consider C27U C79U C87G U90C C96U A121U U134G, for which the “polymerase ribozyme fitness (log ratio)” value was not above -4.2. Regarding A26U G50U C69U G92A A98G, the “polymerase ribozyme fitness (log ratio)” value was not above -4.2. The figure for A26U A28G G42A A49G C69U C96G A113G G143U is not above -4.2; for C27G A30U C93G A98G it is not above -4.2. The figure for C27U C43U C95U A119U G143C U144C is -4.15; for C27U C54G G86A A119U it is not above -4.2; for A26U C35G C69A G92A C96A A97G A120C it is not above -4.2. For the variant C27U G88U C93G C95G, the “polymerase ribozyme fitness (log ratio)” value is not above -4.2. The figure for A28C A40G A106G is not above -4.2; for A28C C69G G92U A107G U145C C149A it is not above -4.2; for A28G C43U A113U G117A A138G it is not above -4.2. The value for A28G U44A G83C A147G was not above -4.2. In the case of A28C U151A, the “polymerase ribozyme fitness (log ratio)” value is not above -4.2.

For the variant A26G A66G G81U G84U C96U, the “polymerase ribozyme fitness (log ratio)” value was not above -4.2. For A26U U31G A106U, the “polymerase ribozyme fitness (log ratio)” value is not above -4.2. The figure for A26G U145A is -3.59.

As for A28U A29C U77G G88A C149A, the “polymerase ribozyme fitness (log ratio)” value is not above -4.2. In the case of C27A C87U U148A, the “polymerase ribozyme fitness (log ratio)” value is not above -4.2. With C27U G50C G141A, the “polymerase ribozyme fitness (log ratio)” value was -4.12. In the case of C27U G67C C75U C87A C99G U146C, the “polymerase ribozyme fitness (log ratio)” value is not above -4.2. The value for A26U G141U was -1.94; that for A26G C38U U55A C75G C79G A89U C103G U146G was not above -4.2; that for C27A C57U C75A C116A was not above -4.2. For the variant C27A C75U C93G A115U, the “polymerase ribozyme fitness (log ratio)” value was not above -4.2. The value for C27U G50A C51A A64U C79U A89G G141A was not above -4.2; that for C27U U61G A64U C96U was not above -4.2. The figure for C27G A39C C63A C85A U109G is not above -4.2; for C27G C35U G50U C85G it is not above -4.2.

Turning to C27G C125A, the “polymerase ribozyme fitness (log ratio)” value was -3.93. On to C27U G46A C75A A91U G94A, for which the “polymerase ribozyme fitness (log ratio)” value is not above -4.2.

For the variant A26U G84C C85G G126A, the “polymerase ribozyme fitness (log ratio)” value was not above -4.2. Regarding C27A C95U C125G, the “polymerase ribozyme fitness (log ratio)” value was not above -4.2. As to A28G A37U C116G C129A, the “polymerase ribozyme fitness (log ratio)” value is not above -4.2. For A28G A52U G84A C103A, the “polymerase ribozyme fitness (log ratio)” value is not above -4.2. As to A28G U55G C69G C87G A97G, the “polymerase ribozyme fitness (log ratio)” value was not above -4.2. The value for A26U A39G G48C G71C U77A A89G A110C was not above -4.2; that for A26U A49C C51U C87A A110G was not above -4.2; that for C27A C32U G50C U55G U139G was not above -4.2. Take A26U C96U: the “polymerase ribozyme fitness (log ratio)” value is -1.62. The value for A26U U53G G58C G92U C116G A119G was not above -4.2; that for A26U C57G G58C A91U C129A C132U U151A was not above -4.2; that for A26U A147U was -0.0486.

In the case of C27U A40U G84A A113C A122G U145A, the “polymerase ribozyme fitness (log ratio)” value was not above -4.2.

Consider C27U A29U C95G U134C, for which the “polymerase ribozyme fitness (log ratio)” value is not above -4.2. The figure for A26U C54A C93A A138C G141C is not above -4.2; for A28G U44G U82G C85G A89G it is not above -4.2; for C27U A66U C95A it is not above -4.2. The value for A26U C54A G86U was not above -4.2; that for C27G C32G A49C A60C C125G was not above -4.2. The figure for C27U C87G C108U is not above -4.2; for C27G C95G C96G it is not above -4.2. Turning to A28C A73C U78G G86C C114A A120U G136U, the “polymerase ribozyme fitness (log ratio)” value is not above -4.2.

As for A26G C32G, the “polymerase ribozyme fitness (log ratio)” value was not above -4.2.

As for C27U U33A G92C, the “polymerase ribozyme fitness (log ratio)” value is -3.92.

In the case of A26U G42U U44A U55A G59U C103G A119G A120U G140U, the “polymerase ribozyme fitness (log ratio)” value is not above -4.2.

Turning to A26U C27U A28U G86U C93U, the “polymerase ribozyme fitness (log ratio)” value is not above -4.2. For A26U G86A, the “polymerase ribozyme fitness (log ratio)” value is -2.74. The figure for A26G A52G U90G U135A G136C is not above -4.2; for A26G U33A U134C U139G it is not above -4.2; for C27U G58A A64G A73G C87G A120G it is not above -4.2.
